Data: article PMC4336329 (PLoS ONE, 2015)
The whole screen tested about 310,000 compounds, of which about 2,200 (0.71%) showed an effect of 50% or more. The effect is printed as a negative number. Some of the results follow.

The compounds below were run against human ether-à-go-go-related gene (hERG) potassium channel (human, UniProt Q12809) (assay: primary screen, population patch clamp on CHO cells stably expressing hERG).
human ether-à-go-go-related gene (hERG) potassium channel, sequence (Q12809 whole entry, looked up): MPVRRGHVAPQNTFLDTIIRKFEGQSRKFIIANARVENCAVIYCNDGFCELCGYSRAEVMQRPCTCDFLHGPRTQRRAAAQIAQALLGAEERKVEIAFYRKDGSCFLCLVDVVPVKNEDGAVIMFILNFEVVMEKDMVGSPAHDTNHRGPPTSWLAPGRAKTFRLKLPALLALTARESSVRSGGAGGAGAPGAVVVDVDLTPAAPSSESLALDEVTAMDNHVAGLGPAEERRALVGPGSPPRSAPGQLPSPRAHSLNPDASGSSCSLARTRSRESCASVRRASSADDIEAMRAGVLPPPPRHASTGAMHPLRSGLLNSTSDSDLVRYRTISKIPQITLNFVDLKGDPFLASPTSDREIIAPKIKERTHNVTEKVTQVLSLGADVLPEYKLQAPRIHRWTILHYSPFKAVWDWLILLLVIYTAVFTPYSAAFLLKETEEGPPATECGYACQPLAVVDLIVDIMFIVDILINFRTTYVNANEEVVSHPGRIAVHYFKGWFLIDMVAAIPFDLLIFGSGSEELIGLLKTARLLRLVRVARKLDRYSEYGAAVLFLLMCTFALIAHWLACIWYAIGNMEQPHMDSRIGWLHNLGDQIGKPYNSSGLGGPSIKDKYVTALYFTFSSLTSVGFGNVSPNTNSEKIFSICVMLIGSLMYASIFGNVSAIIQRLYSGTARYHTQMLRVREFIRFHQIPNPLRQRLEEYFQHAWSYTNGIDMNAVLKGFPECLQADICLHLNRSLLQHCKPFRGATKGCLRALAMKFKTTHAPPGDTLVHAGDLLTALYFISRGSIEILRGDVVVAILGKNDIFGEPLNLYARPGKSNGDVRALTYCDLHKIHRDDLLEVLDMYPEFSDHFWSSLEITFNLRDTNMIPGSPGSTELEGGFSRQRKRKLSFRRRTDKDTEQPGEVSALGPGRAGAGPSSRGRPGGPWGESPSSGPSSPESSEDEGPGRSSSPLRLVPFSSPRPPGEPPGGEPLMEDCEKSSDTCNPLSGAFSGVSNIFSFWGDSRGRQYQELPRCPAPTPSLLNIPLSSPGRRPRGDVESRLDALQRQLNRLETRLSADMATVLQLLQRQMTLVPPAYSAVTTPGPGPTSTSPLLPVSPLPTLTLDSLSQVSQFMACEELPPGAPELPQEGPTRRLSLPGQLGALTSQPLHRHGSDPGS

Row | Structure (SMILES) | hERG current change (%, negative = inhibition) at 1uM [%]
1 | O=C(CN1C(=O)C2CCCCC2C1=O)Nc1ccccc1C(=O)O (stereo not shown) | 9.86
2 | CCN(CC)S(=O)(=O)c1ccc(C(=O)OCn2c(SC)nnc(C)c2=O)cc1 | -2.56
3 | CC(C(=O)c1c[nH]c(C(N)=O)c1)c1ncc(C(F)(F)F)cc1Cl (stereo not shown) | 12.6
4 | Cc1nnc2ccc(-c3ccc(NC(=O)c4ccc(Cl)nc4)cc3)nn12 | -6.7
5 | Cn1c(=O)c2c(nc(CN3CCOCC3)n2CCCc2ccccc2)n(C)c1=O | 16.9
6 | CCSc1nn2c(=O)c3ccccc3nc2s1 | 8.17
7 | C=CCNC(=O)c1onc(CSc2ccc(OC)cc2)c1C(=O)O | 14.4
8 | CCOC(=O)C1(Cc2cccc(OC)c2)CCCN(S(=O)(=O)CC)C1 (stereo not shown) | 23.6
9 | Cc1cccc(C(=O)NNC(=O)/C=C/C(=O)O)c1 | 14.2
10 | CCOc1ccc(-n2c(SCC(=O)Nc3ccc(C(=O)O)cc3)nc3ccccc3c2=O)cc1 | 10.4
11 | Cn1ncc2c(Nc3ccc(Br)cc3)nc(Nc3ccc(Br)cc3)nc21 | 7.09
12 | CCOC(=O)C1=C(C)Nc2nc(SC)nn2C1c1ccc(C(=O)OC)cc1 (stereo not shown) | 11.4
13 | CCOC(=O)c1ccc(/C=N/O)[n+](Cc2ccccc2)c1.[Br-] | 12.9
14 | CC(=O)N/N=C/c1ccc(OCCOc2ccc(Br)cc2)cc1 | 2.27
15 | S=c1[nH]nc(C2(c3ccccc3)CCCC2)o1 | -5.77
16 | Cc1cc2n(n1)SC(Nc1ccc(F)cc1)N2 (stereo not shown) | -16.2
17 | O=C(NNC(=S)NC(=O)c1cccnc1)c1ccc(Cl)cc1 | 16.5
18 | Cc1noc(NS(=O)(=O)c2ccc(NC(=O)c3nn(-c4ccc(F)cc4)ccc3=O)cc2)c1C | -11.6
19 | O=C(/C=C/c1ccc(Cl)cc1Cl)N(Cc1ccc(Cl)cc1)C1CCS(=O)(=O)C1 (stereo not shown) | 13.4
20 | COc1cc(NC(=O)C(=O)NCCN(C)C)c(OC)cc1Cl | 16.6
21 | O=C1C2CCCN2C(c2ccccc2F)N1c1cccc(Cl)c1 (stereo not shown) | 6.83
22 | Cc1csc(SCC(=O)NC(=O)NC2CCCC2)n1 | 14.6
23 | CC[C@H](C)/C=C(C)/C=C/C1=CC2=CC(=O)[C@]3(C)OC(=O)[C@@H](C(C)=O)[C@@H]3C2=CO1 | 16.5
24 | Cc1ccccc1CCNC(=O)c1cc(C2CC2)nc2c1cnn2C(C)C | 14.2
25 | O=C(c1ccc(Cl)cc1)N1N=CCC1(O)c1ccc(Cl)cc1 (stereo not shown) | 15.4
